From PubChem BioAssay AID1508624 (National Center for Advancing Translational Sciences (NCATS), 2021)
Out of some 48,000 compounds screened, about 120 (0.25%) were called active. About 4% were inconclusive and are not listed. The call rests on the fitted dose curve; in most records, active means well fitted activation curve with a large enough effect; inconclusive means small, poorly fitted or top-dose-only effect, or another doubt; inactive means no such curve, though single readings can be large or run the other way. The list shows a part of the results.

test: Primary qHTS for Identification of Small Molecule Activators of Huntingtin-Antisense Promoter Activity; conditions: HEK293 HTT-AS promoter firefly luciferase reporter, 24 h; series mostly up to 57.5 µM; activity change, positive = activation: at the top concentration; further: nearly all actives have a fitted effect of over 55% in size
How it was run: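 Firefly luciferase signal from promoter-reporter HEK293 cells was scaled between vehicle (0%) and zero RLU (-100%). Compounds were tested at final concentrations of up to 57.5 uM over 24 h at 37 degrees C. PTC124 at 50 uM final served as control inhibitor.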

Activity change, positive = activation, inactive:
COc1ccc(CNc2nc(-c3ccc(Cl)cc3)cc(C(F)(F)F)n2)cc1 -33.2%
COc1cccc(Cn2nnc3c(=O)[nH]c(C4CCCN(C(=O)c5ccccc5Cl)C4)nc32)c1 (stereo unspecified) -16.5%
COc1ccc2cc(CNc3ccc(C)cc3)c(=O)n(CC(=O)Nc3ccc(C)cc3Cl)c2c1 -7.26%
CCOc1ccc(NC(=O)CSc2c3c(nc4ccccc24)CCCC3)cc1 -6.72%
CCN1CCSc2ccc(C(=O)NCc3cccc(Br)c3)cc21 -16%
CCCCOc1ccccc1C(=O)N(Cc1sccc1C)C1CCS(=O)(=O)C1 (stereo unspecified) -16.1%
CC(C)(C)c1ccc(C(=O)N2CCCC(c3nc4c(nnn4Cc4cccc(F)c4)c(=O)[nH]3)C2)cc1 (stereo unspecified) -24.2%
Cc1ccc(-c2cn3nc(N4CCCC(C(=O)NCc5ccc(F)cc5)C4)sc3n2)cc1 (stereo unspecified) -34%
Cc1cc(C)cc(NC(=O)Cn2c(=O)n(-c3ccc(C)c(C)c3)c(=O)c3oc4ccccc4c32)c1 -16.8%
COc1ccc(N2CCN(Cc3nc4c(c(=O)n(C)c(=O)n4C)n3C(C)C)CC2)cc1 -38.4%
Cc1ccc2nc(CN3CCN(S(=O)(=O)c4ccc(C(C)C)cc4)CC3)oc2c1 -21.1%
CN(C)CCCn1c(-c2ccc(Cl)cc2)csc1=Nc1ccccc1 -18.8%
COC(=O)c1ccc(NC(=O)CCn2cnnn2)c(C)c1 -4.23%
O=C(c1ccco1)N(Cc1cccs1)c1ccc(F)cc1 -21.3%
Cc1cc(O)c(C(c2ccccc2)N2CCN(c3ccc(F)cc3)CC2)c(=O)n1Cc1ccco1 (stereo unspecified) -10.7%
Cc1ccc(-n2c(CCC(=O)O)ccc2-c2cccs2)cc1Cl -0.206%
Cc1cccc(OCc2cc(=O)n3c4c(sc3n2)CCCC4)c1C 1.33%
CCc1ccccc1NC(=O)c1cc2nc(-c3ccc(Br)cc3)cc(C(F)(F)F)n2n1 -0.174%
CC(C)c1nc2ccc(C(=O)NCc3ccccc3Br)cc2o1 10.8%
COc1ccc(CNC(=O)c2sc3nc[nH]c(=O)c3c2C)cc1 -4.14%
CCOc1ccccc1N1CC(c2nc3ccccc3n2CCCOc2ccc(OC)cc2)CC1=O (stereo unspecified) -2.09%
Cc1noc(-c2ccccc2OCC(=O)Nc2ccccc2[N+](=O)[O-])n1 -6.44%
COc1cccc(CNC(=O)c2ccc(-n3c(C)cc4c3CCCC4)cc2)c1 -3.34%
CC(C)OCCCN1C(=O)c2[nH]nc(-c3ccccc3O)c2C1c1ccccc1F (stereo unspecified) -23.1%
CCOC(=O)c1cc(-c2ccc(F)cc2)n(CCC(=O)Nc2cc(OC)cc(OC)c2)c1C -36.7%
Cn1c(=O)c2c(nc(N3CCOCC3)n2Cc2ccccc2F)n(C)c1=O 2.93%
O=C(Nc1ccccc1C(F)(F)F)C1CCN(S(=O)(=O)c2ccccc2)CC1 -5.85%
O=C(CSc1nc2ncccc2o1)Nc1ccc(Cl)cc1F 17.7%
COc1ccc(OC)c(NC(=O)c2cc3cccc(OC)c3oc2=O)c1 28.2%
CCCNC(=O)c1ccc(Cn2c(SCC(N)=O)nc3ccccc3c2=O)cc1 -20.6%
CCOc1ccccc1C(=O)N1CCc2cc(OC)c(OC)cc2C1COc1ccc(OC)cc1 (stereo unspecified) -19.9%
COc1cccc(CNC(=O)Cn2ncn3c(cc4ccccc43)c2=O)c1 4.19%
Cc1nn(-c2ccccc2)c(OC(=O)c2ccc(Cl)cc2)c1S(=O)(=O)c1ccccc1 -10.8%
COc1ccc(CNS(=O)(=O)c2cc3c(cc2Cl)NC(=O)CO3)cc1 -14.1%
CCC(=O)Oc1c(Sc2ccc(C)cc2)c(C)nn1-c1ccccc1 -18.3%
O=C(c1cc(-c2ccc(Br)cc2)n[nH]1)N1CCN(S(=O)(=O)c2ccc(Cl)s2)CC1 -15.8%
COCCCn1c(SCC(=O)Nc2ccc(OC)cc2)nc2c(sc3ccccc32)c1=O -5.65%
O=C(CSc1nc(=O)n(CCN2CCOCC2)c2c1CCC2)Nc1ccc(F)cc1F -0.355%
CC(C)CC(=O)Nc1ccc2nc(SCC(=O)N3CCOCC3)sc2c1 -26.1%
COC(=O)c1ccccc1NC(=O)c1ccc2c(c1)CCN2S(=O)(=O)c1ccc(Cl)cc1 15.5%
Cc1cc(C)c(S(=O)(=O)NCC2CCC(C(=O)NCCc3ccccc3)CC2)c(C)c1 (stereo unspecified) -13.5%
Cc1ccc(-c2c3c(=O)n(C)c(=O)n(C)c3c3c(-c4cccc(C)c4)nc4ccccc4n23)cc1 9.19% [at 11.5 µM, percent change from vehicle, -100% = no light]
Cc1ccc(C)c(Cn2c3ccccc3c3cnn(CC(=O)NC4CCCCCC4)c(=O)c32)c1 3.86%
Cc1c(Cl)cccc1NC(=O)CSc1nc(=O)[nH]c2c1CCC2 -16.2%
Cc1c2cnn(-c3ccccc3)c(=O)c2c(C)n1CCCC(=O)Nc1cccc(F)c1 -5.44%
O=c1n(Cc2ccccc2)nc2n1-c1cc(Cl)ccc1OC2 -3.15%
COc1ccc(-c2cc(OC(=O)c3cccc(Cl)c3)c3c(C)oc(C)c3c(=O)c2)cc1OC -24%
COc1ccc(CN(Cc2ccco2)C(=O)COc2ccccc2Cl)cc1 -16%
CC(NS(=O)(=O)c1ccc2c(c1)CCN2C(=O)CCCC(=O)O)c1ccccc1 (stereo unspecified) 1.02%
COC1=CC(=O)C[C@@H](C)[C@]12Oc1c(Cl)c(OC)cc(OC)c1C2=O -26%
COc1cc(OC)cc(C(=O)N2CCN(C(=O)COc3ccc(C)cc3)CC2)c1 2.9%
COc1cccc(-n2c(SCC(=O)Nc3ccc4c(c3)OCO4)nc3c([nH]c4ccccc43)c2=O)c1 -18.4%
CCN(CC)c1ccc(NC(=O)Cn2nc3c(cc2=O)CCCC3)c(C)c1 -17.5%
CCc1c(C)sc(NC(=O)c2cc3nc(-c4ccc(OC)cc4)cc(C(F)(F)F)n3n2)c1C(=O)OC -1.64%
CCC(=O)NCC[C@@H]1CCc2ccc3c(c21)CCO3 12.2%
Cc1ccccc1NC(=O)CSc1nc(-c2cccs2)nc2cc(=O)[nH]n12 -14%
COc1ccc(-n2nc(C(=O)Nc3cc(C)c(Cl)cc3OC)c3c4ccccc4n(C)c3c2=O)cc1 -7.95%
COc1cc(C2c3c(-c4cc(C)ccc4O)n[nH]c3C(=O)N2Cc2ccco2)cc(OC)c1OC (stereo unspecified) -13.5%
COC(=O)CSc1nc2sc3c(c2c(=O)n1-c1ccccc1)C(C)CCC3 (stereo unspecified) 1.44%
O=C(Cn1cc(SCc2ccc(Cl)cc2)c2ccccc21)N1CCOCC1 13.2%
CCCc1nn2c(=O)cc(COC(=O)c3cccc(NC(=O)c4ccc(OCC)cc4)c3)nc2s1 -15.4%
